Experimental data reported in PMC4336329 (PLoS ONE, 2015).
Hit rate of the full screen: of about 310,000 compounds, about 2,200 (0.71%) showed an effect of 50% or more. Effects have a minus sign here. The list shows a part of the results.

The compounds below were run against human ether-à-go-go-related gene (hERG) potassium channel (human, UniProt Q12809) (assay: primary screen, population patch clamp on CHO cells stably expressing hERG).
Chain of human ether-à-go-go-related gene (hERG) potassium channel (Q12809 whole entry, looked up): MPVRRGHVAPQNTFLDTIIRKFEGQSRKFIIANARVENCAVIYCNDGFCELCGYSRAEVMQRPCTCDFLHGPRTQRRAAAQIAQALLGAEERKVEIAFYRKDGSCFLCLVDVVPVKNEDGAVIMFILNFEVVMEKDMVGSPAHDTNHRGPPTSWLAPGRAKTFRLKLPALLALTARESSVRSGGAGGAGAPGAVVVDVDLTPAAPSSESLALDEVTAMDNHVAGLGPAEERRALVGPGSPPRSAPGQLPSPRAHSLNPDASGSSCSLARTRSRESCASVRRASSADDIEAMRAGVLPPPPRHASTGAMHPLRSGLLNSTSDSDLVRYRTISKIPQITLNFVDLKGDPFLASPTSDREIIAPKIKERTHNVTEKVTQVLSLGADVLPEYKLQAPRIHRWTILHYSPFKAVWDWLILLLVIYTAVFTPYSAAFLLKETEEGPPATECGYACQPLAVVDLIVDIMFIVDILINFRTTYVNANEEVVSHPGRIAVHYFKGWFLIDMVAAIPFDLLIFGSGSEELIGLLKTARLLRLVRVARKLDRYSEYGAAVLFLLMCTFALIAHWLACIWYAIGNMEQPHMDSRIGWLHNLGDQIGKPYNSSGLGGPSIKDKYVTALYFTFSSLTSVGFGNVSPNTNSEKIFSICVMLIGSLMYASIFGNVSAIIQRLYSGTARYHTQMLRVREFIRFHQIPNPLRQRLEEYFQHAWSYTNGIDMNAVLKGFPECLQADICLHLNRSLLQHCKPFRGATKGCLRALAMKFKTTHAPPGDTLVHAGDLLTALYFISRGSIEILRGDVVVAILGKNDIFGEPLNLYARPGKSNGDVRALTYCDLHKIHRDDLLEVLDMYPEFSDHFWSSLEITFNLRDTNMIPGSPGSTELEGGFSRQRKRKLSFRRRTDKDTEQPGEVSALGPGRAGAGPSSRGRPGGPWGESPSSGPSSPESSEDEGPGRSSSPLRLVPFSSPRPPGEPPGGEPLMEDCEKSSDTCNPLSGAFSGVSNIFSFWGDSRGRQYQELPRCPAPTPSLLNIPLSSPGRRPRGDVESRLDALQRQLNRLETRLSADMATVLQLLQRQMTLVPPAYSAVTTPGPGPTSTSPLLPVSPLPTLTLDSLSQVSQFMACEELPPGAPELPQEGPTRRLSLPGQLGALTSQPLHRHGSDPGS

Compound | hERG current change (%, negative = inhibition) at 1uM [%]
COCCNC(=O)C(OC(=O)c1ccco1)c1ccccc1Cl (centres unmarked) | 11.8
Cc1nc(C(=O)N2CCCC(C(=O)c3cccc(OC(C)C)c3)C2)cs1 (centres unmarked) | 5.24
Cc1cc(C)nc(SCC(=O)c2ccc(C)c(C)c2)n1 | 10.1
CC(=O)N1C(=S)NC(=O)/C1=C1/C(=O)N(CC(=O)Nc2cccc(C)c2)c2ccccc21 | 14.7
CN1CCN(c2ccc(Nc3ccnc4cc(Cl)ccc34)cc2)CC1 | 9.22
O=c1c2ccccc2nc(/C=C/c2ccccc2)n1-c1ccc(O)cc1 | 10.6
Cc1ccsc1/C=N/NC(=O)c1cccnc1 | 12.5
Cc1nn(C(C)C(=O)NCCCN2CCCCC2C)c(=O)c2c1sc1ccccc12 (centres unmarked) | 10.2
Cc1c(-c2ncn[nH]2)sc(C#N)c1-c1ccccc1 | 8.5
O=C(CSc1nnc(COc2ccc(Cl)cc2Cl)o1)Nc1ccccn1 | 5.29
Cc1ccc(C=Nc2ccccc2C#N)s1 | 7.12
CCc1ccc(NC(=O)C2C3C=CC(C4CC34)C2C(=O)O)cc1 (centres unmarked) | 2
O=C(NCC1CCCO1)c1ccc(CNS(=O)(=O)c2ccc(F)c(Cl)c2)cc1 (centres unmarked) | 3.89
CC#CCCCC(=O)Nc1ccccc1C(=O)O | -0.409
Cc1csc(NS(=O)(=O)c2cccc([N+](=O)[O-])c2)n1 | 7.58
CCC1=C(OC(=O)N(CC)CC)N2C(=O)OC(=NCC(=O)OC)[C@]2(Cc2ccccc2)[C@H]2C1=CC[C@H]1C(=O)N(C)C(=O)[C@H]12 | 10.4
COCCN1C(=O)C(CC(=O)Nc2ccc(C(=O)O)cc2)SC1=Nc1ccccc1 (centres unmarked) | 10.8
O=C(NCCC1CCCC1)C1CCC(=O)N(CCCN2CCCC2=O)C1 (centres unmarked) | 23.5
O=C(O)C1(NS(=O)(=O)c2ccc(Cl)cc2)CCCCC1 | 1.41
CC(C)C(=O)Nc1ccc(C(=O)NN2C(=O)c3ccccc3C2=O)cc1 | 11
COc1cccc2cc(C(=O)N(C)C3CCN(C)CC3)c(=O)oc12.Cl | 5.55
COC(=O)CCCC1=CC2=CC(=O)C(C)(OC(=O)c3cccs3)C(=O)C2=CN1Cc1ccco1 (centres unmarked) | -1.36
O=C(NNC1=C(C(=O)C(F)(F)F)CCC1)c1ccccc1Cl | 10.6

Compound | hERG current change (%, negative = inhibition) at 1uM [%]
CCN(CC(=O)Nc1ccc(OC)cc1)C(=O)c1ccc(N2C(=O)CCC2=O)cc1 | 10.2
O=C(c1cc(Br)ccc1Cl)N1CCN(c2ncccn2)CC1 | 13
COc1ccc(CCNC(=O)c2ccc(Cl)cc2Cl)cc1 | 11.4
Cc1cccc(NC(=O)CSc2nnc(-c3ccco3)o2)c1C | 2.07
CCOc1ccc(C(=O)Nc2ccc(NC(=O)c3ccccc3)cc2)cc1Br | 9.45
OC1CCCN(C(=S)Nc2ccc(SC(F)F)cc2)C1 (centres unmarked) | 4.95
CN1CCC(N(C)CC(=O)Nc2ccccc2N2CCOCC2)CC1.O=C(O)C(=O)O | 1.71
CCn1cc(C(=O)NCCC(C)C)c(=O)c2cc(F)c(N3CCN(C(=O)c4ccco4)CC3)cc21 | 9.17
O=C1CCCc2c1[nH]c1ccc(Cl)cc21 | 13.8
O=C(CCNS(=O)(=O)c1cccs1)NCc1ccccc1 | 39.7
O=C(CSc1nc2c(cnn2-c2cccc(Cl)c2)c(=O)[nH]1)NCC1CCCO1 (centres unmarked) | 7.6
CC(C)c1ccc(NC(=O)NCc2ccc(F)cc2)cc1 | 12.9
Cc1ccc(NC(=O)CCCc2nc3ccccc3s2)c(O)c1 | 3.79
CCn1nc(C)c(CN2CCC(n3nccc3NC(=O)c3ccc4c(c3)OCO4)CC2)c1C | 0.427
COc1cc(C2OC(=O)c3ccccc3S2)cc(OC)c1OC (centres unmarked) | 11.9
Cc1cccnc1NC(=O)CNC(=O)C12CC3CC(CC(C3)C1)C2 | 3.55
COc1ccc(N2CCN(c3ccc([N+](=O)[O-])nc3)CC2)cc1 | -4.82
Cc1cc(Oc2nc3c(C)cccn3c(=O)c2/C=C(\C#N)S(=O)(=O)c2ccc(Cl)cc2)ccc1Cl | 4.5
COC(=O)CC1C(=O)NCCN1C(=O)CSc1nnnn1-c1ccc(OC)cc1 (centres unmarked) | 11
CCCCN(CC)CCCNC(=S)Nc1ccc2nc(N3CCN(CC)CC3)cc(C)c2c1 | 5.31
COc1ccc(-c2csc(CCn3nc(C)cc3C)n2)cc1OC | 10.4
COc1cc(/C=C/C(=O)O)ccc1O | -2.14
COc1ccccc1CNC(=O)C1CCCN(S(=O)(=O)c2cccs2)C1 (centres unmarked) | 5.07

Compound | hERG current change (%, negative = inhibition) at 1uM [%]
COC(=O)C1C(=O)/C(=C(/C)N2CCCC2)C(=O)CC1(C)C (centres unmarked) | 2.05
COc1ccc(Cl)cc1NC(=O)CN(C)C(=O)c1sccc1-c1ccccc1 | 12.8
COc1ccc(OC)c2[nH]c(=O)c(CCNS(=O)(=O)c3ccccc3)cc12 | 13
C(=N\n1cnnc1)/c1ccc2ncccc2c1 | -6.72
CCOc1ccc(C(=O)CCC(=O)NNC(=O)c2ccccc2O)cc1 | 11.6
CN(C)S(=O)(=O)N1CCc2ccccc2C1 | 7.54
COc1ccc(NS(=O)(=O)c2ccc(-c3coc(C)n3)cc2)c(OC)c1 | 18
CCOC(=O)C1=C(C)N(CCCCCC(=O)O)C(=O)NC1c1ccccc1OC(=O)c1cccs1 (centres unmarked) | -43.3
COc1ccc2ccccc2c1/C=N/NC(=O)c1nnn(-c2nonc2N)c1C(C)C | 9.08
O=C1CCCC/C1=N\Nc1ccc(OCc2ccccc2)cc1 | 7.2
C=C1C(=O)O[C@H]2C1CC[C@@](C)(O)C13C=CC(C)(C21)C1(C3)C(=O)O[C@@H]2C3C(C)=CCC3[C@](C)(O)C[C@H](OC(C)=O)C21 (some centres unmarked) | 2.12
NC(=O)c1ccsc1NC(=O)C1CCN(S(=O)(=O)c2cccs2)CC1 | 4.15
C=CCN=Cc1c(C)[nH]n(-c2ccccc2)c1=O | 11.2
CCOC(=O)c1ncn2c1C(=O)OC2(C)C | 8.12
COc1cccc(OC)c1C(=O)OCC(=O)NCC(C)C | 10.6
Cc1ccc(SCC(=O)NCC(C)C)cc1 | 2.32
O=C(/C=C/c1ccc([N+](=O)[O-])cc1)N1CCN(Cc2ccccc2)CC1 | -63.8
CC1(C)C2CCC1(CS(=O)(=O)NC(CC(=O)O)c1cccc(Br)c1)C(=O)C2 (centres unmarked) | 15.5
CCCCCCCCNC(=O)/C(C#N)=C/c1ccccc1[N+](=O)[O-] | 6.62
CCOC(=O)C1=C(O)CSC1=Nc1cccc2ccccc12 | 12.3
Cc1c(Cl)c([N+](=O)[O-])nn1CC(=O)N1CCCC1 | 7.88
O=C(c1cccc(Cl)c1)N1CCN(Cc2ccccc2)CC1 | 2.47
CC(Sc1ccccc1)C(=O)Nc1cccc(N(C)S(C)(=O)=O)c1 (centres unmarked) | 12.5

Compound | hERG current change (%, negative = inhibition) at 1uM [%]
CCCc1ccc(C(C)NC(=S)NCc2ccc(F)cc2)cc1 (centres unmarked) | 10.8
CSCCC(NC(=O)COc1ccccc1)C(=O)OCCOc1ccc(F)cc1 (centres unmarked) | 17.6
Cc1ccc(-n2ncc3c2CC(C)(C)CC3NC(=O)CCc2cccnc2)cc1 (centres unmarked) | -26
O=C1c2ccccc2C(=O)N1c1ccc(Br)c2cccnc12 | 10
CCSc1nc2c(c(=O)[nH]1)C(c1ccncc1)C(C(=O)OC(C)C)=C(C)N2 (centres unmarked) | 5.85
Cc1ccc2[nH]cc(CCNC(=O)CN3C(=O)c4ccccc4C3=O)c2c1 | 0.732
O=C(O)c1oc2ccc(Br)cc2c1-n1cccc1 | 8.85
Clc1cccc(C2CCN(Cc3nc(COc4ccccc4)no3)C2)c1 (centres unmarked) | -9.89
CCc1ccc(Oc2cc(C)nc(N)n2)cc1 | 11.3
CCOC(=O)N1CCN(C(=O)c2cc(COc3cccc(C(F)(F)F)c3)on2)CC1 | -9.81
C/C(=N\NC(=O)c1nn(C)cc1Br)c1ccncc1 | 2.29
CN(C)S(=O)(=O)c1cccc(COC(=O)Cc2c(F)cccc2Cl)c1 | 14.2
Cc1cc(C)cc(NC(=O)C2(c3ccccc3)CC2(Cl)Cl)c1 (centres unmarked) | -2.44
N/C(=N\OC(=O)CCC1CCCCC1)c1ccc([N+](=O)[O-])cc1 | -8.83
CCCCn1c(N)c(N(CC)C(=O)c2ccc3c(c2)S(=O)(=O)c2ccccc2C3=O)c(=O)[nH]c1=O | 6.32
Cc1ccc(C(=O)c2c3ccc(C(F)(F)F)cc3nn2CCC(N)=O)cc1 | 7.33
CCn1c(CSc2nnc(-c3ccncc3)n2C)nc2cc(C(=O)O)ccc21 | 13
CC(C)CN(C(=O)COC(=O)Cc1c[nH]c2ccccc12)C1CCS(=O)(=O)C1 (centres unmarked) | 9.7
O=[N+]([O-])c1ccc(N2CCCC2)cc1N1CCCC1 | 6.74
COc1ccc2nc3c(nc2c1)CCCC3 | 8.49
